From the supplement of paper PMC3334620
Over roughly 33,000 sequences, “E-score (-0.5 to 0.5)” has its median near -0.041; the highest 2% begin near 0.37. The list shows a part of the results.

molecular target: T1, Ecm22 (UniProt Q05958); test: PBM E-score (8-mer binding enrichment) (E-score (-0.5 to 0.5)); higher = stronger / more preferred TF binding; most listed sequences are background and not binding sites; details: protein concentration: 200 nM; construct: GST-full length
T1 sequence: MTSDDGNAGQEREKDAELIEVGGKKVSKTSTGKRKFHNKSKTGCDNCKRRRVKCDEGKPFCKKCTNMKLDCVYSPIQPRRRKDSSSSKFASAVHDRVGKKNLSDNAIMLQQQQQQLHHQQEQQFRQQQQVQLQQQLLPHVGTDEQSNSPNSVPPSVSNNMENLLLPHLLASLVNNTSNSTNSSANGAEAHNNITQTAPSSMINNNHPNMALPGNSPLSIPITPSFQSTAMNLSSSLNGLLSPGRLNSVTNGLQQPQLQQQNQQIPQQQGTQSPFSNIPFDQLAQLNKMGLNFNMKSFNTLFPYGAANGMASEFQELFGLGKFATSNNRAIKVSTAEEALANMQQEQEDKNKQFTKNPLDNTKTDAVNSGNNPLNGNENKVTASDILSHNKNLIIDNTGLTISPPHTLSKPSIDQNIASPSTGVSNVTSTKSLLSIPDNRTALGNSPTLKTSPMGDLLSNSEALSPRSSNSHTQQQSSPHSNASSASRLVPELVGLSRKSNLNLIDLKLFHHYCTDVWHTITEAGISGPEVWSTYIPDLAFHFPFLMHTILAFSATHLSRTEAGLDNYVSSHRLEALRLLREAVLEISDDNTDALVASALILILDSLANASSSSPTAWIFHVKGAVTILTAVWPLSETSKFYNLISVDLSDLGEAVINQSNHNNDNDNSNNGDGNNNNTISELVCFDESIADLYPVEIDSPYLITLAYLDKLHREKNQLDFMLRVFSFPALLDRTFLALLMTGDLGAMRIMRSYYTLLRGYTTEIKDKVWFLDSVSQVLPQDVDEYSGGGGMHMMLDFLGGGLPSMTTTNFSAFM
Outline: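 Detection of bound protein used fluorescent anti-GST, with scans normalised by masliner. The proteins were GST-tagged yeast transcription factors applied at about 100-200 nM to universal all-10-mer Agilent arrays made double-stranded by primer extension. Each ungapped eight-base word, pooled with its reverse complement, was scored with an E-score from the Universal PBM Analysis Suite.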

Sequence | PBM E-score
ACTCGGGA | 0.0962
AGTATTAC | 0.114
CGGTAAAA | 0.228
GACCTGCC | -0.133
CCTTCCTC | -0.0948
CACTAACG | 0.0843
GAATATTC | 0.0131
GCGTGACC | -0.0417
CACAGAGA | -0.126
AAGCCCAA | -0.148
CAATCTAG | -0.0844
CAACCGGA | 0.103
TGCAAACA | -0.115
ACTAGGCG | 0.022
CGAATCGA | 0.25
ATCCCGCG | 0.115
CGTTGCTC | 0.347
GTTGTAGA | 0.134
ACGATACC | 0.334
AAGCAGAT | -0.224
CGTGTCTC | 0.159
ATGTCACC | -0.0358
CGTACACA | 0.402
TGCGATAA | 0.097
ATGTAGAA | -0.0578

Sequence | PBM E-score
AAATCGCC | -0.0324
CACAGTTA | -0.204
CAATCAAG | -0.0352
CGAAAAGA | 0.193
GGGAGCTA | -0.137
CGTACGCC | 0.3
CTCGTGGA | -0.0176
GAGCGTGA | -0.0567
ATAAGGCA | -0.0922
ATGAGTTG | -0.0973
GAAAGCCA | -0.233
AAAAATTA | 0.013
CTGTCACA | -0.21
ATGCGTGC | 0.0223
GAATGTCC | -0.0991
AAGGATCA | -0.146
TAGCTGGA | -0.166
AACTTTAA | -0.0181
ATGAAGAC | -0.064
CGCCAGCG | -0.143
ACATGATC | -0.104
TTGTGAAA | -0.162
AAGGTTTA | -0.0875
ATCAACTA | 0.096
GCAAAGGA | 0.0841

Sequence | PBM E-score
ACATACCC | -0.105
GAATTGCC | -0.0443
ATATTCCC | -0.034
AAAGCAGA | 0.058
GACCAACC | -0.0568
CAAGAGGA | -0.145
AAGGGTCA | -0.293
ATCTTCTA | 0.0705
CACCCTGC | -0.23
ACGGAAGC | 0.145
TACCTCAA | 0.0468
GCATTCCC | -0.208
ATTATGCA | 0.00826
CCGGGAAA | 0.0379
AAAGCATG | -0.086
GGGAGGGA | -0.062
GATTTGGA | -0.107
CATAAATC | -0.125
GAGTAACA | 0.0615
AATGGGGC | -0.217
AGTGGACC | -0.319
ATGTCCGA | 0.19
CATTAAAC | 0.125
CGATTTAA | -0.0579
CAGGGATG | -0.0987

Sequence | PBM E-score
CTGTAACC | 0.0512
GCTCTCCC | 0.0533
AAAATATT | 0.0299
AATGCATT | -0.0107
ATCCAACG | -0.119
GAATCCAA | -0.16
GACGGGAC | -0.0305
ACCCAGTG | -0.0151
AAGGAAAC | 0.0265
ACACACTA | 0.0728
CGGAGAGA | 0.0699
AGGCGAAA | -0.0372
TAGCGATA | 0.145
CAGGATGG | -0.0588
CAGGTTAC | -0.164
AACCATGA | 0.0773
CATCTTCC | -0.111
ACCGTCGT | 0.404
ACATTGGC | -0.152
CACCGGAC | 0.112
CGGGCGAA | -0.119
GGGCGAAC | -0.0329
GTCGGTTA | 0.369
AAGCGAAC | 0.268
CGCGCTCA | 0.071

Sequence | PBM E-score
ATACGACC | 0.473
CTATTTCA | -0.126
CTGGGCTA | -0.17
AGCGACGG | 0.299
ACGAGCAG | 0.383
CGCCAGGA | -0.205
AAATCATA | 0.196
AAAACACC | -0.212
ACGACAAA | 0.384
ACGTAGCG | 0.27
CTTCAGCC | -0.276
TACCACAA | 0.071
AGCAGGCA | -0.165
TCCTAACA | -0.0844
AGTCGATC | 0.123
AATTGGTA | 0.124
CCATTAGC | -0.0326
GCTGTCTA | -0.0813
CGATTCAG | 0.0769
AAGAGTCT | -0.0637
CAAGGTCG | -0.109
CGAGTTAA | 0.222
CGGGCCTC | -0.0452
CACTGAAG | -0.175
ATGGGCCC | -0.157

Sequence | PBM E-score
CAACGGAC | -0.0366
AGGGCGTC | -0.0399
CTTCGTGC | 0.0216
TCCCGACA | 0.0279
AATAAGAA | -0.0401
AGACTTCA | -0.115
GTCCTCTA | -0.181
AAAGAATA | -0.0162
GGCGACTA | -0.0711
CTCAATCC | -0.0357
TAGCCTCA | -0.138
ACGCCAGC | 0.0291
ATTTTACA | -0.028
CTCCCCTA | -0.0506
CGCCGCAG | -0.188
CGCTTGCA | -0.00412
ACAGTCCC | -0.262
TAGGGGAA | -0.133
GCATGCAC | -0.133
CCGAATCA | 0.0958
GCCATTAA | -0.0291
GCGTTATA | 0.0325
GACTCCCA | -0.0874
CACATCAA | 0.0831
TACGTGCA | 0.107

Sequence | PBM E-score
CATGGGTC | -0.278
AGCTCTAG | -0.186
GAATCAAC | 0.219
GACACGAA | 0.126
GGGTCGTA | 0.439
ACCCCATA | -0.242
CCTTGAAG | -0.198
AGAAGGAT | -0.29
AGTTCACA | 0.00229
AGGTTAGA | -0.186
TCAATCAA | 0.0397
CTCAGGCC | -0.149
CGTGCCTA | -0.232
CGTATATC | 0.439
ACCGCAAC | 0.152
ATCCCCCC | -0.383
CGCCAGGC | -0.0299
ACTCCGCT | -0.0723
AGTACTCG | 0.277
CTTTTCCA | -0.271
AAACGGCT | 0.259
AAGTGAAG | -0.137
